Test results as given in PubChem BioAssay AID624296 (National Center for Advancing Translational Sciences (NCATS), 2012).
About 9,900 (2.8%) of roughly 350,000 compounds were called active. Inconclusive results, whose numbers are uncertain, are shown with a selection of clear calls. Calls come from the whole dose curve; as a rule, active = well fitted activation curve with a large enough effect; inconclusive = small, poorly fitted or top-dose-only effect; inactive = no such curve, though single readings can be large or run the other way. No potency is given beside an inconclusive call; the fits are too rough.

Experiment: A quantitative high throughput screen for small molecules that induce DNA re-replication in MCF 10a normal breast cells. For activity, positive = re-replication: % of control where 0% means no effect. Note: nearly all actives have a fitted effect of over 50% in size.
Details: MCF 10A DNA re-replication, Hoechst nuclear intensity, 48 h; activity, positive = re-replication: at 46.1 µM (top of the series)
Potency is the fitted concentration of half-maximal effect; tags give direction and shape of the fitted curve.

| Compound | Potency | activity, positive = re-replication |
| --- | --- | --- |
| O=C(/C=C/c1ccco1)NC(=S)Nc1ccc(C(=O)O)cc1 | inactive | – |
| Cc1ccc(NC(=O)N2CCCCCC2)cc1C | inactive | – |
| O=C(NC1CCCCCCC1)c1ccc2c(c1)N(Cc1ccc(F)cc1)C(=O)CS2=O (stereo not drawn) | inconclusive [activator, partial curve, poor fit] | – |
| COc1ccc(OC)c(Nc2cc(C)c3ccccc3n2)c1 | inconclusive [activator, partial curve, poor fit] | – |
| CCOC(=O)N1CCC(N2Cc3cccc(C(=O)Nc4ccc(N(CC)CC)cc4C)c3C2=O)CC1 | inactive | – |
| COc1ccc(C(=O)/C=C/c2ccc(C)cc2)c(OC(=O)c2ccc([N+](=O)[O-])cc2)c1 | inconclusive [activator, single point] | – |
| Cc1nn(-c2ccccc2)c(N)c1N=Nc1cccc(S(=O)(=O)N2CCOCC2)c1 | inactive | – |
| COCCOC(=O)c1[nH]c2c(c1C)C(=O)CC(c1cccs1)C2 (stereo not drawn) | inconclusive [activator, full curve, poor fit] | – |
| Cc1coc(NC(=O)CSc2nc(-c3ccncc3)cc(C(F)(F)F)c2C#N)n1 | inconclusive [activator, partial curve, poor fit] | – |
| CCn1c(-c2cccnc2Cl)nc2cc(Cl)c(Cl)cc21 | inactive | – |
| COc1cc(C(=O)NC(C)c2ccc(-n3ccnc3)cc2)cc(OC)c1C (stereo not drawn) | inconclusive [activator, partial curve, poor fit] | – |
| O=C(CSc1nnnn1-c1ccc(C(=O)O)cc1)NC1CCCCC1 | inactive | – |
| Cc1ccc(C(=O)Nc2c(C(=O)N3CCOCC3)cnn2-c2ccccc2)cc1 | inconclusive [activator, partial curve, poor fit] | – |
| Cc1ccc(-n2nc3c(=O)n(CCCC(=O)NC4CCC(C)CC4)nc(C)c3c2C)cc1 (stereo not drawn) | inconclusive [activator, single point] | – |
| COc1cccc(CN2CC(C(=O)NCCc3ccc(C)s3)CCC2=O)c1 (stereo not drawn) | inactive | – |
| CCN(CC(=O)Nc1c(F)cccc1F)C(=O)c1cc(-c2cccs2)nn1-c1ccccc1 | inconclusive [activator, partial curve, poor fit] | – |
| CNCC(O)CN1CCN(c2ccccc2OC)CC1 (stereo not drawn) | inconclusive [activator, single point] | – |
| CN(Cc1ccccc1)CC1C2CCC(C2)C1O (stereo not drawn) | inactive | – |
| Cc1ccc(-c2cc(=O)[nH]c(NCc3ccccc3)n2)cc1 | inconclusive [activator, full curve, poor fit] | – |
| COc1cc2c(cc1OC)CN(C(=O)c1ccc(Cl)c(S(=O)(=O)N3CCCC3)c1)CC2 | inconclusive [activator, full curve] | – |
| N#C/C(=C\c1cn(Cc2ccc(C#N)cc2)c2ccccc12)C(=O)NCc1cccs1 | inconclusive [activator, partial curve, poor fit] | – |
| CCOc1cccc(-c2nnc3sc(COc4ccc(Cl)cc4)nn23)c1 | inconclusive [activator, single point] | – |

| Compound | Potency | activity, positive = re-replication |
| --- | --- | --- |
| COc1ccc(N2CCN(C(=O)COc3cccc4ccccc34)CC2)cc1 | inconclusive [activator, partial curve, poor fit] | – |
| CC[n+]1c(/C=C(/C)SC)sc2ccccc21 | inconclusive [activator, partial curve, poor fit] | – |
| CN(CCOc1ccccc1)C(=O)C1CCC(=O)N(CCCN2CCOCC2)C1 (stereo not drawn) | – | inconclusive: 80.4% [activator] |
| O=C(Nc1ccc(CN2CCOCC2)cc1)c1ccc(Br)cc1 | inconclusive [activator, single point] | – |
| CCCS(=O)(=O)c1c(S(=O)(=O)CCC)c2c(C)cccn2c1C(=O)OC | active: 20.6 µM | – |
| CCOc1cc(/C=C2\CCC/C(=C\c3cc(Cl)c(O)c(OCC)c3)C2=O)cc(Cl)c1O | inconclusive [activator, full curve, poor fit] | – |
| CCOC(=O)c1ccc(CC(=O)c2oc3cc(O)ccc3c2C)o1 | inconclusive [activator, full curve, poor fit] | – |
| Cn1c(SCC(=O)NCCc2ccccc2)nnc1C1CCCCC1 | inactive | – |
| Cc1ccc(S(=O)(=O)N2[C@@H](c3ccc(C(C)C)cc3)C(C(=O)O)=C[C@H]2C(C)(C)C)cc1 | inactive | – |
| CCOC(=O)C1CCN(C(=O)COC(=O)c2ccc(Br)o2)CC1 | inconclusive [activator, partial curve, poor fit] | – |
| CCN(CC(=O)Nc1cc(C)nn1-c1nc(C)cc(C)n1)Cc1ccccc1 | inconclusive [activator, single point] | – |
| COc1ccc(C(=O)C2CCCN(S(=O)(=O)c3ccc(C(C)=O)cc3)C2)c(C)c1 (stereo not drawn) | inactive | – |
| Cc1ccc(C(=O)c2c(NC(=O)c3ccccc3C)sc(C)c2C)cc1 | inconclusive [activator, partial curve, poor fit] | – |
| COC(=O)c1cc(N=Cc2c(O)c3ccccc3oc2=O)cc(C(=O)OC)c1 | inconclusive [activator, full curve, poor fit] | – |
| C=CCNC(=S)NNC(=O)c1cccn(Cc2ccc(Cl)c(Cl)c2)c1=O | inactive | – |
| COc1ccc(N2C(=O)CSC2c2ccc(F)c(F)c2)cc1 (stereo not drawn) | inactive | – |
| COc1ccc(CCNc2nc(C)cc(=O)[nH]2)cc1OC | inconclusive [activator, single point] | – |
| Cc1cccc(NC(=S)NCC(C)CSc2ccc(Cl)cc2)c1 (stereo not drawn) | active: 18.4 µM | – |
| c1ccc2c(-c3nc(C4CCCCC4)no3)cc(-c3ccncc3)nc2c1 | inconclusive [activator, single point] | – |
| O=C(COC(=O)c1cc[n+]([O-])cc1)Nc1ccc(Cl)cc1[N+](=O)[O-] | inactive | – |
| O=C(CN1C(=O)/C(=C2\SC(=S)N(C3CCS(=O)(=O)C3)C2=O)c2ccccc21)Nc1ccc(F)cc1 (stereo not drawn) | inconclusive [activator, full curve, poor fit] | – |
